From PubChem BioAssay AID720709 (National Center for Advancing Translational Sciences (NCATS), 2013)
Hit rate of the full screen: of about 360,000 compounds, about 520 (0.14%) were called active. Inconclusive means that the source gave no clear call. Such entries were picked first, then a sample of the others. Calls follow the shape of the dose curve; as a rule, active = well fitted inhibition curve with a large enough effect; inconclusive = small, poorly fitted or top-dose-only effect; inactive = no such curve, though single readings can be large or run the other way. Potencies beside an inconclusive call are fits to weak or partial responses and may not hold up.

Target: Rap guanine nucleotide exchange factor 3 (Homo sapiens) (UniProt O95398)
Assay: qHTS for Antagonist of cAMP-regulated guanine nucleotide exchange factor 3 (EPAC1): primary screen; also: nearly all actives have a fitted effect of over 50% in size;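 as to activity change, negative = inhibition: plate controls were vehicle for no effect and positive control for full effect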
Details: EPAC1 GEF assay, Rap1b-BODIPY-GDP exchange fluorescence; activity change, negative = inhibition: at 115 µM (top of the series)
Potency is read from the fitted curve at half-maximal effect; tags tell the direction and shape of the fitted curve.

Sequence of UniProt O95398 (O95398 whole entry, looked up): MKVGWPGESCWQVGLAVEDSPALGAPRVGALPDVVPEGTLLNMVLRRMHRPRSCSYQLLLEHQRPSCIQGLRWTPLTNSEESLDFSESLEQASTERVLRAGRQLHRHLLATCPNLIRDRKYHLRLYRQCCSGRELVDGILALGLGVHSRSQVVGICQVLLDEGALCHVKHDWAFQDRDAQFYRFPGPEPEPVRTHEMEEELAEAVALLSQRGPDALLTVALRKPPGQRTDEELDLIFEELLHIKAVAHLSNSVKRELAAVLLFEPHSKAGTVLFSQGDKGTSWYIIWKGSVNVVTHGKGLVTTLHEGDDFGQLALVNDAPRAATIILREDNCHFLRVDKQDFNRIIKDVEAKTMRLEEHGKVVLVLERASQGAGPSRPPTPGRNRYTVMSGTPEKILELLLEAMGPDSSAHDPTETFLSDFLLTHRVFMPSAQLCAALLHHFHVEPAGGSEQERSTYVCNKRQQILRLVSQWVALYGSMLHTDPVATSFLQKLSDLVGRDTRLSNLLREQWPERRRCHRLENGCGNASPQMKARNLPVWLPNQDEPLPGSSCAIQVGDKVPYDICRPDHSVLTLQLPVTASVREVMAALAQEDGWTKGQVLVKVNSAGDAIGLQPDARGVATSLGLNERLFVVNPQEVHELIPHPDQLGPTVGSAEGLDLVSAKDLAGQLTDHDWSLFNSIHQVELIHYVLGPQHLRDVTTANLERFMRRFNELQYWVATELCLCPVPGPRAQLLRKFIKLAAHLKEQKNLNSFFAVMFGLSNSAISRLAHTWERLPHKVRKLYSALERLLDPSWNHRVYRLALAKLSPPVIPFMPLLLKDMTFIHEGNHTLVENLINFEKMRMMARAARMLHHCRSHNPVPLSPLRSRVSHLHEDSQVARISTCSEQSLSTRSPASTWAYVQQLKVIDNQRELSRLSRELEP

Potency, inactive:
C/C(N)=C(/C#N)C(=O)COC(=O)C(NS(=O)(=O)c1ccc(Cl)cc1)C(C)O (configuration not stated)

Potency, inconclusive:
Cc1ccc(C)c(S(=O)(=O)NCc2ccc(C(=O)N3CCN(c4ccccc4)CC3)cc2)c1 89.1 µM [inhibitor, single point]
Cc1c(C(=O)C(=O)N2CC=C(c3ccccc3)CC2)c2ccccc2n1C 7.94 µM [inhibitor, full curve, poor fit]
CC(C)NC(=O)NC(=O)COC(=O)CCOc1ccccc1 6.31 µM [inhibitor, full curve, poor fit]
O=C(Nc1ccc(C(=O)Nc2ccccc2Cl)cc1)c1cccnc1 50.1 µM [inhibitor, partial curve]
O=C(Nc1ccc(-c2csc(-c3ccccc3)n2)cc1)c1ccccc1Cl 35.5 µM [inhibitor, single point]
COC1=Nc2ccccc2N2CCN=C12 44.7 µM [inhibitor, full curve, poor fit]
COP(=O)(OC)OC(C(=O)c1ccccc1)c1ccc(Cl)cc1 (configuration not stated) 89.1 µM [inhibitor, single point]
COc1ccc(C(=O)CC(=O)C(=O)NCCc2cccc(C)c2)cc1 70.8 µM [inhibitor, single point]
COc1ccccc1N1CCN(C(c2ccc(F)cc2)c2nnnn2C(C)C)CC1 (configuration not stated) 70.8 µM [inhibitor, single point]
O=C(Cc1csc(N2CCOCC2)n1)N/N=C/c1ccc(O)c(O)c1O 50.1 µM [inhibitor, partial curve]
Cc1nnc(SC(=O)N2c3ccccc3Sc3ccccc32)s1 11.2 µM [inhibitor, full curve, poor fit]
Cc1ccc(NC(=O)CCCc2nc3ccccc3s2)c(O)c1 50.1 µM [inhibitor, partial curve]
COc1cc2nc(=S)n(CCCN3CCOCC3)c(N)c2cc1OC 12.6 µM [inhibitor, partial curve]
COc1ccc(/C=N/NC(=O)c2cccnc2)cc1CN1CCCc2ccccc21 79.4 µM [inhibitor, single point]
C=CCc1cc(/C=N/n2cnnc2)cc(OCC)c1O 70.8 µM [inhibitor, single point]
O=C(COc1ccc2ccccc2c1)Nc1ccc(Br)cc1C(=O)O 15.8 µM [inhibitor, full curve]
CCN(c1cccc(C)c1)S(=O)(=O)c1ccc2c(c1)N(C(C)=O)CCS2 70.8 µM [inhibitor, single point]
CC1=NN(c2ccccc2)C(=O)C1C(=O)c1cc([N+](=O)[O-])cc([N+](=O)[O-])c1 (configuration not stated) 31.6 µM [inhibitor, partial curve, poor fit]
O=S(=O)(NC1CCCCC1Oc1ccccc1)c1ccc(Cl)cc1 (configuration not stated) 22.4 µM [inhibitor, partial curve]
c1ccc(CN2CCC(Nc3nc(-c4cccs4)nc4ccccc34)CC2)cc1 100 µM [inhibitor, single point]
CCN(CC)c1ccc(/C=N/N2C(C)CCCC2C)c(O)c1 (configuration not stated) 100 µM [inhibitor, single point]
COc1ccc(CC(=O)Nc2nc(OCC(F)(F)F)cnc2-c2ccc(Cl)cc2Cl)cc1 79.4 µM [inhibitor, single point]
CC(C)(COC(=O)Nc1ccccc1)COC(=O)Nc1ccccc1 7.94 µM [inhibitor, full curve, poor fit]
CN1CCN(Cc2cn[nH]c2-c2ccc(F)cc2F)[C@@H](c2ccccc2)C1 7.08 µM [inhibitor, full curve, poor fit]
Cc1ccccc1Oc1nc2c(C)cccn2c(=O)c1/C=C(\C#N)C(=O)Nc1c(C)n(C)n(-c2ccccc2)c1=O 70.8 µM [inhibitor, single point]
Cc1ccc(N2C(=O)[C@@H]3[C@H](C2=O)C2c4ccccc4C=CN2[C@@H]3C(=O)c2ccco2)c(C)c1 (some centres not stated) 89.1 µM [inhibitor, single point]
O=C1NC[C@@H](CCCCN2C[C@H](Cc3ccc(O)cc3)N(CCC3CCCCC3)C(=O)C2=O)N(CC2CCCCC2)C1=O 100 µM [inhibitor, partial curve]
Cc1cc(Br)cn2c(CC(C)(C)C)c(-c3cccc(Cl)c3)nc12 10 µM [inhibitor, full curve, poor fit]
CN(CCOc1ccc(Br)cc1)C(=O)CNC(=O)c1ccc2ccccc2c1 56.2 µM [inhibitor, single point]
FC(F)(F)c1cccc(NC(=S)Nc2cccc(NC(=S)Nc3cccc(C(F)(F)F)c3)n2)c1 17.8 µM [inhibitor, full curve, poor fit]
Cc1ccc(-c2c(C(=O)Nc3ccccc3C)c(C)[nH]c(=S)c2C#N)o1 89.1 µM [inhibitor, single point]
CCN(CC)c1ccc(C(=O)OCC(=O)NCC2CCCO2)cc1 (configuration not stated) 39.8 µM [inhibitor, single point]
COCCNC(=O)c1c[nH]c2ccc(S(=O)(=O)N(C)c3ccc(C)c(C)c3)cc2c1=O 100 µM [inhibitor, single point]
CCOC(=O)c1c(/N=C/C2=C(O)CC(C)(C)CC2=O)sc(C)c1C 39.8 µM [inhibitor, single point]
O=C(O)c1cccc(Cn2c(Cl)c(/C=N/NC(=O)c3ccccc3O)sc2=O)c1 70.8 µM [inhibitor, single point]
O=S(=O)(c1ccc(F)cc1)N(CCO)CC(O)Cn1c2ccccc2c2ccccc21 (configuration not stated) 89.1 µM [inhibitor, single point]
COc1ccc(/C=C2/SC(=S)N(NS(=O)(=O)c3ccc(C)cc3)C2=O)cc1 44.7 µM [inhibitor, partial curve]
Cc1ccc(CNS(=O)(=O)c2c(N)n(C)c(=O)n(C)c2=O)cc1 25.1 µM [inhibitor, single point]
CC(=O)c1ccc(N2CCN(S(=O)(=O)c3ccc4c(c3)C(Cl)(Cl)C(=O)N4)CC2)cc1 50.1 µM [inhibitor, partial curve, poor fit]
C#Cc1ccc([C@@H]2C=C(C(=O)NCc3ccccc3)O[C@H](OCc3ccc(CO)cc3)C2)cc1 89.1 µM [inhibitor, single point]
c1ccc(Nc2cccc(Nc3ccccc3)n2)cc1 70.8 µM [inhibitor, single point]
CC[C@@]1(C(=O)OC)N[C@H](CN(C)S(=O)(=O)c2ccccc2)[C@@H]2C(=O)N(C)C(=O)[C@@H]21 100 µM [inhibitor, single point]
Cc1cccc(NC(=O)CN2C(=O)N/C(=C/c3ccc(-c4cccc(C(=O)O)c4C)o3)C2=O)c1 12.6 µM [inhibitor, full curve]
COc1cn(-c2ccccc2)nc1C(=O)Nc1ccc(C)cc1Cl 28.2 µM [inhibitor, partial curve]
COc1cccc(NC(=O)Cn2c3ccc(OC)cc3c3nc4n(c(=O)c32)CCS4)c1 89.1 µM [inhibitor, single point]
COc1ccc(C)cc1S(=O)(=O)N1CCN(C(=O)c2ncoc2-c2cccc(F)c2)CC1 39.8 µM [inhibitor, partial curve]
Cc1ccc(N=Nc2c(O)[nH]c3ccc(F)cc23)cc1 44.7 µM [inhibitor, partial curve]
Cc1ccc(C)c(-n2cc(CNCCCn3cccn3)c(-c3ccccc3)n2)c1 2.82 µM [inhibitor, full curve, poor fit]
COc1ccc(-c2cc(C)no2)cc1S(=O)(=O)Nc1ccccc1 100 µM [inhibitor, partial curve, poor fit]
O=[N+]([O-])c1ccc(SNc2ccccc2)c([N+](=O)[O-])c1 10 µM [inhibitor, partial curve]

Potency, active:
COc1ccccc1/C=C1\SC(=S)N(NS(=O)(=O)c2ccccc2)C1=O 56.2 µM

Activity change, negative = inhibition, inactive:
O=C1N(Cc2cccnc2)C[C@@H]2C[C@@H](c3ccc(C(F)(F)F)cc3)N3CCC[C@@]123 0.858%
CCN(CC)c1ccc(N=Nc2nn(C)c(C)c2[N+](=O)[O-])cc1 -15.5%
COc1ccccc1CNC(=O)CCC(=O)Nc1nnc(C)s1 13.7%
COc1ccc(CN2CCN(Cc3cccn3-c3ncccn3)CC2CCO)c(C)c1C (configuration not stated) -20.1%
O=C(Nc1nnc([C@H]2C[C@H](O)[C@@H](CO)O2)s1)Nc1ccccc1Oc1ccccc1 1.8%
Cn1c(C(=O)N2CCCC(C(=O)O)C2)cc2sccc21 (configuration not stated) 13.3%
O=[N+]([O-])c1ccc(NN=Cc2cccc([N+](=O)[O-])c2)cc1 -2.51%
CN(C)Cc1c(O)ccc2cc(-c3nc4ccccc4n3C)c(=O)oc12 3.42%
CC1CCN(C(=O)CSc2nc3ccccc3[nH]2)CC1 5.38%
COC(=O)c1ccc2nc(-c3ccc(OC)c(OC)c3)c(Cc3cccc(F)c3)n2c1 -20.9%
